From PubChem BioAssay AID2675 (National Center for Advancing Translational Sciences (NCATS), 2010)
Hit rate of the full screen: of about 280,000 compounds, about 100 (0.036%) were called active. Inconclusive means that the source gave no clear call. Such entries were picked first, then a sample of the others. The call rests on the fitted dose curve; in most records, active means well fitted inhibition curve with a large enough effect in the signal ratio, with a control signal flat (not every such curve was filed as active); inconclusive means small, poorly fitted or top-dose-only effect, or effect the other way, or a change in a side signal; inactive means no such curve, though single readings can be large or run the other way; the % refers to the signal ratio. Where the call is inconclusive, the potency comes from a doubtful curve fit. A note “side channel” means that the fit belongs to a control or component signal, not to the main read-out.
On the % scale 0 is the no-effect control and ±100 the full control effect; potency means the concentration at half of the fitted maximal effect; tags describe the fitted curve by direction and shape or compound fluorescence and quenching.

Each compound was assayed against Muscleblind-like protein 1 (Homo sapiens) (UniProt Q9NR56) (assay: qHTS Assay for Inhibitors of MBNL1-poly(CUG) RNA binding). Settings: TR-FRET MBNL1-His/biotin-(CUG)12 binding, 665/545 ratio; activity change, negative = inhibition: at 57.5 µM (top of the series).
Chain of UniProt Q9NR56 (Q9NR56 whole entry, looked up): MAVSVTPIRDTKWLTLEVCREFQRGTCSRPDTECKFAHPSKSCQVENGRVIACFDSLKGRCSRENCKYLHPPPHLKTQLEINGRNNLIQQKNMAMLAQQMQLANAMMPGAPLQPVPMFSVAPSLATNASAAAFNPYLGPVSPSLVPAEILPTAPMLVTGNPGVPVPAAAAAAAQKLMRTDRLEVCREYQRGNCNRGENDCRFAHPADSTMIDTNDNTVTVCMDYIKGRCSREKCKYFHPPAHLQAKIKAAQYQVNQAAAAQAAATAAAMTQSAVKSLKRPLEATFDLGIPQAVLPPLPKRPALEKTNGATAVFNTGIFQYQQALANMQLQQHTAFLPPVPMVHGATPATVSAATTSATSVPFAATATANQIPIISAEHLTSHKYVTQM
In short: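 His-tagged MBNL1 binding to biotinylated (CUG)12 RNA was measured by TR-FRET using terbium anti-His antibody (0.055 ng/ul final) and streptavidin-XL665 (5 nM final). Compounds were titrated 92 nM to 58 uM; 60 min at room temperature.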
`CN(C(=O)c1ccno1)c1nnc(-c2cnccn2)s1` was tested, and the Potency was inconclusive: 22.4 µM [quencher, partial curve].
For `COc1cc(NC(=O)c2cccs2)c(OC)cc1NC(=O)CCC(=O)Nc1ccc(C)cc1`, the “activity change, negative = inhibition” value was inactive: -2.31%.
For `O=C(COC(=O)c1ccc(O)cc1)Nc1ccccc1[N+](=O)[O-]`, the Potency was inconclusive: 11.2 µM [quencher, side channel, partial curve].
With `COC(=O)c1cccc(Nc2cc(C)nc(-c3ccccc3O)n2)c1` the Potency was inconclusive: 63.1 µM [inhibitor, partial curve].
With `CC(OC(=O)c1ccc([N+](=O)[O-])s1)C(=O)Nc1ncc(Cl)cc1Cl` (centres undefined) the Potency was inconclusive: 7.94 µM [quencher, side channel, full curve].
In the case of `O=[N+]([O-])c1ccc2c(c1)nc1n2CCN(C2CCCCC2)C1`, the Potency is reported as inconclusive: 8.91 µM [quencher, side channel, full curve].
With `c1ccc2cc3[nH]c(CN4CCCCC4)nc3cc2c1` the Potency was inconclusive: 25.1 µM [quencher, side channel, partial curve].
With `O=C(N/N=C/c1cccnc1)c1ccc([N+](=O)[O-])cc1Cl` the Potency was inconclusive: 10 µM [quencher, side channel, partial curve].
`O=[N+]([O-])c1cnccc1Nc1ccccc1` was tested, and the Potency was inconclusive: 10 µM [quencher, side channel, partial curve].
With `Cc1cccc(NC(=O)c2cc(Cl)ccc2[N+](=O)[O-])c1` the Potency was inconclusive: 25.1 µM [quencher, side channel, partial curve, poor fit].
For `c1ccc(Cc2nn3c(Cn4cnc5ccccc54)nnc3s2)cc1`, the activity change, negative = inhibition was inconclusive: 27.9% [phenotype inactive].
In the case of `COc1ccc2oc3cc(C)[n+]([O-])c(-c4ccc(Br)cc4)c3c2c1`, the Potency is reported as inconclusive: 0.112 µM [fluorescent, side channel, partial curve].
In the case of `O=[N+]([O-])c1ccc(Cc2nnc(-c3ccccc3Cl)o2)cc1`, the Potency is reported as inconclusive: 15.8 µM [quencher, side channel, partial curve].
In the case of `CCOC(=O)CCSCC(=O)Nc1nnc(C)s1`, the Potency is reported as inconclusive: 39.8 µM [quencher, side channel, partial curve, poor fit].
`O=[N+]([O-])c1ccc(NCCN2CCOCC2)c([N+](=O)[O-])c1` was tested, and the Potency was inconclusive: 12.6 µM [quencher, side channel, partial curve].
In the case of `CN1C(=O)c2ccc(N3CCCC3)cc2C1=O`, the Potency is reported as inconclusive: 14.1 µM [quencher, side channel, partial curve].
With `O=C(O)CSc1cc(NS(=O)(=O)c2ccc(Br)cc2)c2ccccc2c1O` the Potency was inconclusive: 17.8 µM [quencher, side channel, partial curve].
In the case of `CCN1CCN(S(=O)(=O)c2ccc(Cl)c(C(=O)Nc3ccc(OC(F)F)cc3)c2)CC1`, the “activity change, negative = inhibition” value is reported as inactive: 0.527%.
`CN(C)/C(Cn1cncn1)=C1/N=C(c2c(F)cccc2F)OC1=O` was tested, and the “activity change, negative = inhibition” value was inactive: 6.41%.
`CN(C)CCCNc1nc(N)c([N+](=O)[O-])c(NCc2ccccc2)n1` was tested, and the Potency was inconclusive: 28.2 µM [quencher, side channel, single point].
For `CCOC(=O)c1sc(NC(=O)CSc2n[nH]c(-c3ccc(Cl)cc3Cl)n2)c(C#N)c1C`, the “activity change, negative = inhibition” value was inactive: -19.4%.
For `C/C(CC(=O)Nc1ccc(C)c(Cl)c1)=N\NC(=O)C1CCCCC1`, the “activity change, negative = inhibition” value was inactive: -4.76%.
In the case of `CN(Cc1c(C(=O)N/N=C/c2cccc(O)c2)nnn1-c1nonc1N)c1ccccc1`, the Potency is reported as inconclusive: 28.2 µM [quencher, side channel, single point].
`Cc1cccc(N=C2NC(=O)/C(=C/c3cccn3C)S2)c1C` was tested, and the Potency was inconclusive: 39.8 µM [quencher, side channel, single point].
`CCCCCC(=O)Nc1cccc(C2=NOC3(C2)C[C@H](C(N)=O)N(C(=O)COc2ccc(Cl)cc2)C3)c1` (some centres undefined) was tested, and the “activity change, negative = inhibition” value was inactive: -2.46%.
With `Fc1cccc(CSc2nc3ccncc3[nH]2)c1` the “activity change, negative = inhibition” value was inactive: -1.9%.
For `COc1ccc(-n2nc3c(N)n[nH]c3cc2=O)cc1`, the Potency was inconclusive: 14.1 µM [quencher, side channel, partial curve].
With `CCC(=O)N1CCc2cc(S(=O)(=O)CCC(=O)Nc3nc(C)cs3)ccc21` the Potency was inconclusive: 7.08 µM [quencher, side channel, single point].
`O=C1c2ccc(-c3ccc4c(c3)C(=O)N(CCO)C4=O)cc2C(=O)N1CCO` was tested, and the Potency was inconclusive: 1.58 µM [quencher, side channel, full curve].
`CCOc1ccccc1OCCCOc1ccc(C)cc1Br` was tested, and the “activity change, negative = inhibition” value was inactive: 0.622%.
In the case of `O=c1c2ccccc2[nH]c(=S)n1CCN1CCc2ccccc2C1`, the Potency is reported as inconclusive: 44.7 µM [quencher, side channel, single point].
In the case of `Cc1ccccc1CN1C(=O)C(O)(CC(=O)c2ccncc2)c2ccccc21` (centres undefined), the Potency is reported as inconclusive: 20 µM [quencher, side channel, partial curve].
With `O=C(CN1C(=O)/C(=C/c2ccccc2)SC1=S)N1CCN(CCc2ccccn2)CC1` the Potency was inconclusive: 3.16 µM [quencher, side channel, full curve].
With `Cc1nc(NCCN2CCOCC2)c2oc3ccccc3c2n1` the “activity change, negative = inhibition” value was inactive: -6.6%.
`O=C1NC2(CCCc3ccccc32)C(=O)N1CCOc1ccc(Br)cc1` (centres undefined) was tested, and the “activity change, negative = inhibition” value was inactive: 1.31%.
For `CS(=O)(=O)NCCNc1cc(Cl)ccc1[N+](=O)[O-]`, the Potency was inconclusive: 7.08 µM [quencher, side channel, partial curve].
In the case of `Cc1cc(C)n(-c2ccc(NC(=O)C3CCCCN3C(=O)c3ccoc3C)cc2)n1` (centres undefined), the “activity change, negative = inhibition” value is reported as inactive: 7.37%.
For `c1cc(-c2sc(-c3ccncc3)c(-c3ccncc3)c2-c2ccncc2)ccn1`, the Potency was inconclusive: 31.6 µM [quencher, side channel, single point].
`Cc1c(NC(=O)CCCN2C(=O)c3cccc4cccc(c34)C2=O)c(=O)n(-c2ccccc2)n1C` was tested, and the Potency was inconclusive: 39.8 µM [quencher, single point].
With `O=S(=O)(Nc1cccc(F)c1)c1cccc2nsnc12` the Potency was inconclusive: 11.2 µM [quencher, side channel, partial curve].
In the case of `CCCCCn1c(SCC#N)nc2cc(C(=O)NCC3CCCO3)ccc2c1=O` (centres undefined), the Potency is reported as inconclusive: 25.1 µM [fluorescent, side channel, single point].
`O=C1c2cccc([N+](=O)[O-])c2C(=O)N1c1ccccc1` was tested, and the Potency was inconclusive: 10 µM [quencher, side channel, partial curve].
With `CCOC(=O)c1c(C)oc2c1c(C=NCc1ccccn1)c(O)c1ccccc12` the Potency was inconclusive: 7.08 µM [quencher, side channel, partial curve].
`CCn1ncc([N+](=O)[O-])c1C(=O)Nc1ccc(C)c(C)c1` was tested, and the Potency was inconclusive: 39.8 µM [quencher, side channel, partial curve, poor fit].
In the case of `O=c1cc(-c2ccccc2)nc2n1Cc1ccccc1-2`, the Potency is reported as inconclusive: 0.794 µM [fluorescent, side channel, single point].
`CCOC(=O)N1CCN(C(=O)/C(=C/c2cccc3ccccc23)NC(=O)c2ccc(OC)cc2)CC1` was tested, and the Potency was inconclusive: 35.5 µM [quencher, side channel, partial curve].
`COCCCNC(=O)c1ccc(Cn2c(=O)[nH]c3ccccc3c2=O)cc1` was tested, and the Potency was inconclusive: 79.4 µM [inhibitor, single point].
With `Cc1ccc(C)c(N(CC(=O)N/N=C/c2ccc(-c3ccc([N+](=O)[O-])cc3)o2)S(=O)(=O)c2ccccc2)c1` the Potency was inconclusive: 14.1 µM [quencher, side channel, partial curve].
With `CCn1c(SCC(=O)N2CCN(c3ccccc3)CC2)nc2c(c1=O)SC(C)C2` (centres undefined) the “activity change, negative = inhibition” value was inactive: -10.8%.
For `CNC(=O)COC(=O)c1cc(=O)[nH]c2ccccc12`, the Potency was inconclusive: 31.6 µM [quencher, side channel, single point].
With `O=C(O)CCCCCNS(=O)(=O)c1cccc2c1C(=O)c1ccccc1C2=O` the Potency was inconclusive: 3.16 µM [quencher, side channel, full curve].
In the case of `Nc1c(/C=C2/C=CC(=O)C(O)=C2)c(=O)nc2sc(CC(=O)N3CCCC3)nn12`, the Potency is reported as inconclusive: 31.6 µM [quencher, side channel, single point].
For `CCOC(=O)c1cc2c(=O)n3cccc(C)c3nc2n(CCCOC)c1=NC(=O)c1cccnc1`, the Potency was inconclusive: 3.16 µM [quencher, side channel, full curve].
For `COC(=O)COc1ccc2c(c1)O/C(=C\c1cccc([N+](=O)[O-])c1)C2=O`, the Potency was inconclusive: 3.16 µM [quencher, side channel, full curve, poor fit].
In the case of `O=c1c(Cc2ccc(Cl)cc2)c(O)ccn1Cc1ccccc1`, the Potency is reported as inconclusive: 39.8 µM [quencher, side channel, single point].
With `CC(CC(=O)O)CC(=O)Nc1cc(C(F)(F)F)cc(C(F)(F)F)c1` (centres undefined) the Potency was inconclusive: 0.562 µM [inhibitor, full curve, poor fit].
`O=C(Nc1ccc(N2CCCC2)cc1)c1ccccc1[N+](=O)[O-]` was tested, and the Potency was inconclusive: 12.6 µM [quencher, side channel, partial curve].
`COc1cc(-c2nc3ccccn3c2/N=C/c2cccc(OC)c2O)ccc1O` was tested, and the Potency was inconclusive: 28.2 µM [quencher, single point].
With `CCOc1ccc(C2/C(=C(\O)c3ccc4c(c3)OCCO4)C(=O)C(=O)N2CCCn2ccnc2)cc1OC` (centres undefined) the “activity change, negative = inhibition” value was inactive: 4.35%.
